# From the supplement of paper PMC4967469
# What was measured:
# Test in all cases: Viability of human cancer cell lines after 72 h of drug (GDSC screen)
# Paclitaxel = compound: CC(=O)O[C@H]1C(=O)[C@@]2(C)[C@H]([C@H](OC(=O)c3ccccc3)[C@]3(O)C[C@H](OC(=O)[C@H](O)[C@@H](NC(=O)c4ccccc4)c4ccccc4)C(C)=C1C3(C)C)[C@]1(OC(C)=O)CO[C@@H]1C[C@@H]2O [Paclitaxel]; details: top dose 0.1024 µM
# Method: (§1)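 Human cancer cell lines in 384-well plates, medium with 10% serum, drug for 72 h over a 256-fold dose range (nine 2-fold or five 4-fold steps up to the top dose). Adherent lines were fixed and stained with the nucleic acid dye Syto60, suspension lines read with resazurin; signal relative to control wells, capped at 0 and 100%. One two-parameter sigmoid per drug and line, fitted in a mixed model over all curves with the slope shared within a line.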
# Bortezomib = compound: CC(C)C[C@H](NC(=O)[C@H](Cc1ccccc1)NC(=O)c1cnccn1)B(O)O [Bortezomib]; details: top dose 0.02 µM
# Method: as §1
# Obatoclax mesylate = compound: COC1=CC(c2cc3ccccc3[nH]2)=N/C1=C\c1[nH]c(C)cc1C [Obatoclax mesylate]; details: top dose 16 µM
# Method: as §1
# CP724714 = compound: COCC(=O)NC/C=C/c1ccc2ncnc(Nc3ccc(Oc4ccc(C)nc4)c(C)c3)c2c1 [CP724714]; details: top dose 10.24 µM; top dose inferred
# Method: as §1
# STF-62247 = compound: Cc1cccc(Nc2nc(-c3ccncc3)cs2)c1 [STF-62247]; details: top dose 10.24 µM; top dose inferred
# Method: as §1
# CX-5461 = compound: Cc1cnc(CNC(=O)c2c(=O)c3ccc(N4CCCN(C)CC4)nc3n3c2sc2ccccc23)cn1 [CX-5461]; details: top dose 10.24 µM; top dose inferred
# Method: as §1
Cell Line,AUC (Paclitaxel),IC50 (Paclitaxel) [nM],AUC (Bortezomib),IC50 (Bortezomib) [nM],AUC (Obatoclax mesylate),IC50 (Obatoclax mesylate) [nM],AUC (CP724714),IC50 (CP724714) [nM],AUC (STF-62247),IC50 (STF-62247) [nM],AUC (CX-5461),IC50 (CX-5461) [nM]
"SCH (stomach, adherent)",0.934,> 102,0.927,> 20,0.961,> 16000,0.981,> 10200,0.988,> 10200,0.988,> 10200
"SF126 (glioma, adherent)",0.842,77.4,0.332,0.414,0.296,256,0.986,> 10200,0.986,> 10200,0.89,> 10200
"SF268 (glioma, adherent)",0.551,8.9,0.501,1.26,0.159,80.9,0.978,> 10200,0.978,> 10200,0.777,4430
"SF539 (glioma, adherent)",0.731,26.8,0.718,4.8,0.224,174,0.99,> 10200,0.954,> 10200,0.99,> 10200
"SH-4 (melanoma, adherent)",0.525,7.79,0.226,0.123,0.071,< 62.5,0.96,> 10200,0.969,> 10200,0.97,> 10200
"SHP-77 (small cell lung carcinoma, semi-adherent)",0.96,> 102,0.641,2.93,0.588,1690,0.896,> 10200,0.984,> 10200,0.813,4790
"SIG-M5 (acute myeloid leukaemia, suspension)",0.444,4.67,0.686,3.57,0.075,70.4,0.957,> 10200,0.979,> 10200,0.348,273
"SIMA (neuroblastoma, adherent)",0.835,80.1,0.865,> 20,0.421,590,0.97,> 10200,0.985,> 10200,0.486,584
"SJSA-1 (bone, adherent)",0.671,20.5,0.577,2.09,0.238,156,0.983,> 10200,0.984,> 10200,0.903,> 10200
"SK-ES-1 (Ewing sarcoma, semi-adherent)",0.625,14.5,0.853,17.2,0.194,114,0.959,> 10200,0.947,> 10200,0.3,168
"SK-LMS-1 (soft tissue, adherent)",0.449,4.69,0.443,0.883,0.234,177,0.981,> 10200,0.966,> 10200,0.431,418
"SK-MEL-1 (melanoma, suspension)",0.976,> 102,0.926,> 20,0.855,10100,0.983,> 10200,0.98,> 10200,0.993,> 10200
"SK-MM-2 (myeloma, suspension)",0.982,> 102,0.479,–,0.354,387,0.984,> 10200,0.936,> 10200,0.73,2980
"SK-N-DZ (neuroblastoma, adherent)",0.851,76.7,0.595,2.27,0.512,1080,0.958,> 10200,0.97,> 10200,0.894,> 10200
"SK-PN-DW (Ewing sarcoma, adherent)",0.514,7.01,0.591,2.24,0.165,90.5,0.978,> 10200,0.982,> 10200,0.521,731
"SK-UT-1 (soft tissue, adherent)",0.409,3.68,0.199,0.178,0.209,154,0.989,> 10200,0.989,> 10200,0.974,> 10200
"SLVL (B-cell lymphoma, suspension)",0.674,20.2,0.51,1.34,0.509,1060,0.982,> 10200,0.985,> 10200,0.667,1930
"SNB75 (glioma, adherent)",0.624,16.4,0.509,1.34,0.448,678,0.978,> 10200,0.97,> 10200,0.684,2670
"SNU-C1 (large intestine, suspension)",0.853,> 102,0.824,> 20,0.855,> 16000,0.98,> 10200,0.98,> 10200,0.969,> 10200
"ST486 (Burkitt lymphoma, suspension)",0.595,11.3,0.728,5.07,0.061,< 62.5,0.983,> 10200,0.854,6660,0.572,985
"SU-DHL-1 (anaplastic large cell lymphoma, suspension)",0.974,> 102,0.678,3.37,0.529,1180,0.995,> 10200,0.992,> 10200,0.906,6840
"SU-DHL-4 (B-cell lymphoma, suspension)",0.554,8.63,0.441,0.903,0.031,< 62.5,0.997,> 10200,0.995,> 10200,0.927,8030

Cell Line,AUC (Paclitaxel),IC50 (Paclitaxel) [nM],AUC (Bortezomib),IC50 (Bortezomib) [nM],AUC (Obatoclax mesylate),IC50 (Obatoclax mesylate) [nM],AUC (CP724714),IC50 (CP724714) [nM],AUC (STF-62247),IC50 (STF-62247) [nM],AUC (CX-5461),IC50 (CX-5461) [nM]
"SU-DHL-6 (B-cell lymphoma, suspension)",0.356,2.85,0.341,0.512,0.17,148,0.974,> 10200,0.902,7180,0.952,> 10200
"SU-DHL-8 (B-cell lymphoma, suspension)",0.662,17.4,0.431,0.821,0.056,< 62.5,0.902,> 10200,0.981,> 10200,0.692,2120
"SU-DHL-16 (B-cell lymphoma, suspension)",0.61,11.8,0.44,0.895,0.103,97.2,0.969,> 10200,0.991,> 10200,0.878,5720
"SUP-HD1 (Hodgkin lymphoma, suspension)",0.817,54,0.442,0.875,0.389,504,0.974,> 10200,0.963,> 10200,0.839,6500
"SUP-M2 (anaplastic large cell lymphoma, suspension)",0.426,4.21,0.624,2.52,0.263,258,0.961,> 10200,0.843,4880,0.787,3360
"SUP-T1 (T-cell lymphoblastic leukaemia, suspension)",0.99,> 102,0.953,> 20,0.244,199,0.975,> 10200,0.975,> 10200,0.788,4040
"SW684 (fibrosarcoma, adherent)",0.981,> 102,0.468,0.981,0.821,15600,0.982,> 10200,0.982,> 10200,0.983,> 10200
"SW872 (soft tissue, adherent)",0.808,46.8,0.415,0.751,0.24,195,0.989,> 10200,0.989,> 10200,0.989,> 10200
"SW954 (urogenital system, adherent)",0.315,1.93,0.57,1.95,0.372,440,0.921,> 10200,0.974,> 10200,0.621,1390
"SW962 (urogenital system, adherent)",0.53,7.89,0.682,4.6,0.162,67.3,0.982,> 10200,0.981,> 10200,0.784,5530
"TC-71 (Ewing sarcoma, adherent)",0.81,43.1,0.723,4.7,0.821,7320,0.976,> 10200,0.99,> 10200,0.912,> 10200
"TE-1 (oesophagus, adherent)",0.494,6.14,0.449,0.875,0.242,145,0.963,> 10200,0.982,> 10200,0.957,> 10200
"TE-5 (oesophagus, adherent)",0.622,14.6,0.396,0.618,0.384,455,0.978,> 10200,0.982,> 10200,0.939,> 10200
"TE-6 (oesophagus, adherent)",0.501,6.44,0.829,15.4,0.552,1420,0.908,> 10200,0.974,> 10200,0.755,4020
"TE-8 (oesophagus, adherent)",0.321,1.95,0.406,0.678,0.188,107,0.956,> 10200,0.968,> 10200,0.863,9890
"TE-9 (oesophagus, adherent)",0.456,4.84,0.297,0.326,0.284,239,0.986,> 10200,0.981,> 10200,0.956,> 10200
"TE-10 (oesophagus, adherent)",0.354,2.54,0.406,0.693,0.158,92.1,0.983,> 10200,0.983,> 10200,0.889,> 10200
"TE-12 (oesophagus, suspension)",0.681,23.1,0.708,5.56,0.356,365,0.918,> 10200,0.983,> 10200,0.894,> 10200
"TE-15 (oesophagus, suspension)",0.268,1.27,0.65,–,0.267,196,0.632,1560,0.967,> 10200,0.697,2480
"TGBC1TKB (biliary tract, adherent)",0.62,13.7,0.555,1.76,0.448,720,0.986,> 10200,0.986,> 10200,0.989,> 10200
"TGW (neuroblastoma, adherent)",0.887,–,0.781,7.07,0.107,70,0.99,> 10200,0.992,> 10200,0.778,3550

# The IC50 comes from the fitted curve, where viability falls to half of the control; where the fit passes the top or lowest dose, that dose stands as a limit. AUC is the area under the same curve over the 256-fold range up to the top dose, as a fraction: 1 means no effect, lower means more sensitive. For part of these data: The top dose, if marked as inferred, is not printed in the source and was worked back from the curve model.
